# In PubChem BioAssay AID588453 (National Center for Advancing Translational Sciences (NCATS), 2011):
# The campaign covered roughly 390,000 compounds. About 4,000 (1%) were called active. Inconclusive means that the source gave no clear call. Such entries were picked first, then a sample of the others. Calls follow the shape of the dose curve; as a rule, active = well fitted inhibition curve with a large enough effect; inconclusive = small, poorly fitted or top-dose-only effect; inactive = no such curve, though single readings can be large or run the other way. Where the call is inconclusive, the potency comes from a doubtful curve fit.
# Target: Thioredoxin reductase 1, cytoplasmic (Rattus norvegicus) (UniProt O89049)
# Sequence of UniProt O89049 (O89049 whole entry, looked up): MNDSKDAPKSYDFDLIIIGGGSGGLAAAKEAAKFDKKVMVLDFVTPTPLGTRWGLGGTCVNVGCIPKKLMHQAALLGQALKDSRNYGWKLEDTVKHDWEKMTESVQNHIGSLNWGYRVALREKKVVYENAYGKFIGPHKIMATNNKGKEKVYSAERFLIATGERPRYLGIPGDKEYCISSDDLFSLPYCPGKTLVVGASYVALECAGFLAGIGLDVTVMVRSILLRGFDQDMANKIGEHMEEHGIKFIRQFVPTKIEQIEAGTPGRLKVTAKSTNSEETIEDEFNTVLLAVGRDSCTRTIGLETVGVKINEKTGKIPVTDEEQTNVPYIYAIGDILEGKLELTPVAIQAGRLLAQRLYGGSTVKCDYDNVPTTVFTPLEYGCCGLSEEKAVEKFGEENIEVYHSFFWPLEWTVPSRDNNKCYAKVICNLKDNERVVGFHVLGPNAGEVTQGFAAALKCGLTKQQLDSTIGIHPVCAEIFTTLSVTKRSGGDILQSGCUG
# Experiment: qHTS Assay for Inhibitors of Mammalian Selenoprotein Thioredoxin Reductase 1 (TrxR1): qHTS; also: nearly all actives have a fitted effect of over 65% in size
# Conditions: recombinant rTrxR1, NADPH fluorescence consumption, selenite substrate; series mostly up to 114 µM
# Outline: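 Rat TrxR1 (90 nM in the dispensed reagent) was pre-reduced with 400 uM NADPH for 5 min at room temperature, then incubated with compound for 15 min. After 400 uM selenite was added, NADPH fluorescence (Ex 340/Em 450 nm) was followed for 8 min.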
# Potency is read from the fitted curve at half-maximal effect; tags tell the direction and shape of the fitted curve.
row,Structure (SMILES),Potency
1,Cc1ccc(/C=C(\C#N)C(=O)NCC2CCCO2)o1 (configuration not stated),"inconclusive: 22.4 µM [inhibitor, full curve]"
2,CCn1cc(C(=O)NCCCN2CCCC(C)C2)c(=O)c2cc(S(=O)(=O)N3CCc4ccccc4C3)ccc21 (configuration not stated),inactive
3,Cc1ccc(C)n1-c1nnc(N2CCCC(C(=O)NCc3cccc(F)c3)C2)s1 (configuration not stated),"inconclusive: 35.5 µM [inhibitor, partial curve]"
4,O=C(c1ccccc1)c1c[nH]cc1-c1ccccc1,inactive
5,O=C(CNC(=O)c1ccc(Cl)c([N+](=O)[O-])c1)OC1CCCCC1=O (configuration not stated),"inconclusive: 70.8 µM [inhibitor, partial curve]"
6,CCOC(=O)c1cc(OC(=O)c2ccccc2C)n(-c2ccccc2)n1,inactive
7,CCC1C/C(=C\c2cccnc2)C(=O)/C(=C/c2cccnc2)C1 (configuration not stated),"inconclusive: 56.2 µM [inhibitor, partial curve, poor fit]"
8,N#CC(C#N)C(c1ccsc1)c1c(-c2ccccc2)[nH][nH]c1=O (configuration not stated),"inconclusive: 39.8 µM [inhibitor, single point]"
9,O=C(Cc1cccs1)OCC(=O)c1ccco1,"inconclusive: 50.1 µM [inhibitor, partial curve]"
10,N#C/C(=C\C1=C(N2CCOCC2)C(=C\c2ccccc2)/CC1)C(=O)Nc1ccccc1F,"inconclusive: 56.2 µM [inhibitor, single point]"
11,Cc1ccc(NC(=O)Cn2ncc(Cl)c(Cl)c2=O)cc1S(=O)(=O)N1CCCCC1,"inconclusive: 56.2 µM [inhibitor, partial curve]"
12,O=C(c1nsc(Cl)c1Cl)N1CCCCC1,"inconclusive: 28.2 µM [inhibitor, single point]"
13,CCOC(=O)C1=C(N)Oc2ccc3ccccc3c2C1c1ccc(O)cc1 (configuration not stated),inactive
14,CCOc1ccc(N2Cc3ccccc3C2)cc1,"inconclusive: 70.8 µM [inhibitor, partial curve]"
15,COc1ccccc1C(=O)NCCC(=O)N(Cc1ccco1)Cc1cccs1,"inconclusive: 79.4 µM [inhibitor, single point]"
16,O=C(Nc1cccc(F)c1)C1CCN(S(=O)(=O)c2cccc3nsnc23)CC1,inactive
17,CSc1ccc(C2NC(=O)c3ccccc3N2)cc1 (configuration not stated),inactive
18,Cc1ccc(CO/N=C\Cc2snc(Sc3ncc(C(F)(F)F)cc3Cl)c2C#N)cc1,"inconclusive: 70.8 µM [inhibitor, single point]"
19,Cc1ccc2c(c1)c(=O)c(C(=O)c1ccc3c(c1)OCO3)cn2Cc1ccc(Cl)cc1,inactive
20,O=C(Nc1nnc(Cc2ccc(Cl)cc2)s1)C1CCCO1 (configuration not stated),inactive
21,C=CCn1c(SCc2c(F)cccc2Cl)nnc1-c1ccco1,"inconclusive: 70.8 µM [inhibitor, single point]"

row,Structure (SMILES),Potency
1,CCCN(C(=O)c1cc2c(s1)CCC2)c1c(N)n(Cc2ccccc2)c(=O)[nH]c1=O,inactive
2,COc1ccc(S(=O)(=O)N2CCOCC2)cc1NC(=O)CCc1nc2ccccc2c(=O)[nH]1,"inconclusive: 89.1 µM [inhibitor, single point]"
3,Nc1nc(CN2CCN(c3ccccn3)CC2)nc(Nc2ccc(F)cc2)n1,"inconclusive: 50.1 µM [inhibitor, partial curve, poor fit]"
4,CCOc1ccccc1N1CCN(c2nc(N)c(C#N)c(CC#N)c2C#N)CC1,"inconclusive: 20 µM [inhibitor, partial curve]"
5,NC(=O)c1c(NC(=O)CSc2nnc(-c3ccco3)n2-c2ccccc2)sc2c1CCC2,"inconclusive: 56.2 µM [inhibitor, single point]"
6,C=CCn1c(SCc2csc(C)n2)nc2scc(-c3ccc(C)o3)c2c1=O,"inconclusive: 22.4 µM [inhibitor, full curve, poor fit]"
7,Cc1cccc(CS(=O)(=O)c2ncc(Cl)c(C(=O)Nc3c(C)cccc3C)n2)c1,"inconclusive: 11.2 µM [inhibitor, full curve, poor fit]"
8,CC(=O)c1ccc(OC(=O)C2CC(=O)N(c3cccc(C)c3)C2)cc1 (configuration not stated),"inconclusive: 56.2 µM [inhibitor, single point]"
9,COc1cc(/C=C2/C(=O)CNC2=O)ccc1O,"inconclusive: 11.2 µM [inhibitor, partial curve, poor fit]"
10,COc1ccc(NC(=S)NCc2ccc(S(N)(=O)=O)cc2)c(OC)c1,"inconclusive: 15.8 µM [inhibitor, partial curve]"
11,COc1ccc(CN(Cc2ccccc2)C(=O)c2ccco2)cc1COc1ccc(NC(C)=O)cc1,"inconclusive: 56.2 µM [inhibitor, partial curve, poor fit]"
12,O=[N+]([O-])c1ccc(S(=O)(=O)c2cccc(C(F)(F)F)c2)nc1,"inconclusive: 0.282 µM [inhibitor, full curve, poor fit]"
13,Cc1cc(Br)ccc1NC(=O)CCS(=O)(=O)c1cccc2nsnc12,"inconclusive: 50.1 µM [inhibitor, partial curve]"
14,COc1ccc(-c2c(-c3ccsc3)oc(=O)c3cc(OC)c(OC)cc23)cn1,inactive
15,O=C(NC1CCCN(Cc2ccc(Cl)cc2)C1)c1cnc2ccccn2c1=O (configuration not stated),"inconclusive: 31.6 µM [inhibitor, single point]"
16,O=C1C(Cl)=C(NCC2CCCO2)C(=O)N1c1ccccc1 (configuration not stated),"inconclusive: 50.1 µM [inhibitor, partial curve]"
17,COc1ccccc1-c1cc(C(F)(F)F)c(C#N)c(=O)[nH]1,"inconclusive: 89.1 µM [inhibitor, partial curve, poor fit]"
18,Cc1[nH]c2ccccc2c1/C=N/Nc1cccc(C(=O)O)c1,"inconclusive: 50.1 µM [inhibitor, partial curve, poor fit]"
19,CCOC(=O)NNc1ccc2nonc2c1[N+](=O)[O-],"inconclusive: 70.8 µM [inhibitor, single point]"
20,COc1ccc(CN2CCNC(=O)C2CC(=O)NC2CCCCCCC2)cc1C (configuration not stated),"inconclusive: 70.8 µM [inhibitor, partial curve]"
21,O=C(NCCc1ccccc1F)C1CCC(=O)N(Cc2ccccc2F)C1 (configuration not stated),inactive
